The RNAGym collection of RNA variant scans (doi:10.1093/nar/gkz1192)
The source gives no read counts; variants with many changes may rest on few reads.

B1: CPEB3 Ribozyme (parent)
chain: UAACAGGGGGCCACAGCAGAAGCGUUCACGUCGCAGCCCCUGUCAGAUUCUGGUGAAUCUGCGAAUUCUGCUGUAUAUCUC

Variants of: B1
Assay: self-cleavage, relative activity (ratio to wild type); higher = more cleavage; in vitro, sequencing
Outline: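 For each CPEB3 ribozyme variant, relative activity is its cleaved/total read fraction divided by the unmutated ribozyme's. Barcoded error-prone PCR libraries were transcribed by T7 RNA polymerase (5 hours, 37°C) and held in DNase I for 15 min before an EDTA stop, with cleavage occurring throughout. Template-switching reverse transcription and Illumina sequencing were used to read the RNAs. A 5-read minimum applied, and results are the mean of three batches.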

Variant	self-cleavage
A15G A57G U66C	0.21
A15G A57G U66C U80C	0.93
A15G A57G U67C	0.07
A15G A57G U78C	0.58
A15G A64C U67C	0.18
A15G A64C U80C	0.19
A15G A64G A65G	0.16
A15G A64G C81U	0.51
A15G A64G U66C U67A U69G U72C	0.23
A15G A64G U80C	0.79
A15G A64U U72C	0.36
A15G A65G U66C	0.23
A15G A65G U72C	0.71
A15G A65U U66C	0.34
A15G A77U U80C	1.08
A15G C17A A18G A21G G53A	0.35
A15G C17A A64G U78C	0.22
A15G C17A U25C U31G U54A U74A	0.07
A15G C17A U25C U43A	0.06
A15G C17G A20G	0.55
A15G C17G A35G U43C U58C A75G	0.09
A15G C17G A56U U78A	0.14
A15G C17G C59A	0.3
A15G C17U A21U A28G A45U U60A U72C	0.1

Variant	self-cleavage
A15G C17U U43C U78C	0.32
A15G C23A U26C	0.31
A15G C23A U41C U43A G52U G53C U54C	0.07
A15G C23A U74C U78A	0.11
A15G C23G C40A	0.09
A15G C23G U41A U43C C79G	0.27
A15G C23U A47G	0.45
A15G C23U U41C U43A A56C	0.17
A15G C27A A64G	0.22
A15G C27A C40U U51A U69C	0.08
A15G C27A G42A A45U	0.23
A15G C27A U66C	0.07
A15G C27G A28C U41C U69A	0.26
A15G C27G A28G C40G U69C	0.19
A15G C27U U31C C40U U58A	0.08
A15G C29G U41C U51A A57G U72C	0.18
A15G C29G U74C A75U	0.1
A15G C29U U54C A77U U78C	0.27
A15G C32A A45G U66C	0.13
A15G C32G U43C A45G U49C	0.09
A15G C32U U43C U80C	1.15
A15G C32U U49A A65G	0.09
A15G C32U U51C	0.18
A15G C32U U78C	0.11

Variant	self-cleavage
A15G C34U A35U G52A U76C	0.15
A15G C34U A45G A47G U51G U58C U72C	0.1
A15G C34U G36A U43C A45G	0.05
A15G C34U U58C C71G	0.08
A15G C34U U72C	0.33
A15G C37U U60C U80C	0.34
A15G C38A U51A U58A A64C U72C U78C	0.04
A15G C38A U74G	0.13
A15G C38G A56G	0.41
A15G C38U U58A U60A A65G U78C	0.04
A15G C39A U41C A56G U78C	0.1
A15G C39G G63A U80A	0.14
A15G C39U A65G	0.11
A15G C39U G53A	0.85
A15G C40A U43C G53A	0.14
A15G C40A U69C	0.05
A15G C40A U78C	0.35
A15G C40G C44G	0.33
A15G C40U A56G	0.44
A15G C40U G73A	0.7
A15G C40U U43C U60A	0.15
A15G C40U U60C	0.23
A15G C44A A56G	0.16
A15G C44G U60A	0.2

Variant	self-cleavage
A15G C44U A56U	0.26
A15G C50U A56G U76C U80C	0.8
A15G C62U U66C U72C U76C	0.2
A15G C62U U66C U76C A77G	0.13
A15G G16A A45G U48C U80C	0.17
A15G G16A C27A G42A U54G U66A	0.03
A15G G16A U25C U31C U41C U72A	0.06
A15G G16A U31C A45U U60A	0.19
A15G G16C G63C	0.21
A15G G16C U25C	0.08
A15G G16U U49C A64G	0.06
A15G G19A U69C G70A	0.1
A15G G19C U31G A56U	0.08
A15G G19U U49C	0.3
A15G G22A A47G	0.13
A15G G22A C71A U72A U78C	0.04
A15G G22A U49C A64G U72C U80C	0.07
A15G G24A A28C A35U U48C	0.22
A15G G24A A28U U72C	0.18
A15G G24A C38A U66C	0.11
A15G G24A C39U C50A U54A	0.09
A15G G24A U31C U41C	0.08
A15G G24A U41C U72G	0.18
A15G G24A U43A	0.35

Variant	self-cleavage
A15G G24A U43C A64U	0.14
A15G G24U U25C U51A A75G	0.23
A15G G24U U41C A56G U78C U80C	0
A15G G30A G52U U69C	0.07
A15G G30A U41A A56U U66G A77U U78C	0.03
A15G G30A U48C	0.19
A15G G30U A47G	0.19
A15G G30U G33C A47G G73A U80C	0.34
A15G G33A A45G U51A	0.09
A15G G33A A75G	0.08
A15G G33A U74A	0.41
A15G G33U A45G U69A	0.06
A15G G36A U43C U51A U72C A77G	0.09
A15G G36C U41A U49A	0.13
A15G G42A A56G U69C U80C	0.29
A15G G42A A64U	0.16
A15G G46A A57G	0.24
A15G G46U U51C G63A	0.16
A15G G52C U54G A57G U66C C68A	0.07
A15G G53A U54G	0.95
A15G G55A A64G	0.16
A15G G63A A65G	0.19
A15G G63A A65U	0.8
A15G G70C C71U	0.34

Variant	self-cleavage
A15G U25A A35G A56G U60C	0.06
A15G U25A A64U U76C	0.05
A15G U25A U26C U72C	0.12
A15G U25A U31A A35U A65G U74C	0.07
A15G U25A U31A C38U U60C	0.07
A15G U25A U31C G42A U54C A65U U66C	0.07
A15G U25A U41C A45G U60A	0.08
A15G U25A U49C U58C	0.21
A15G U25A U51A G63A A64G U72G U76G	0.15
A15G U25A U51C A64G U80C	0.05
A15G U25A U58C U72G	0.14
A15G U25A U72A U78A	0.2
A15G U25C A28G U41C	0.16
A15G U25C A35G A47G U80C	0
A15G U25C A35U U43C A57U A64U	0.04
A15G U25C A35U U60C U69C	0.16
A15G U25C A45C U48A	0.17
A15G U25C A47U A75G	0.33
A15G U25C A57G C68G U69A C81U	0.02
A15G U25C A64C U69A	0.25
A15G U25C A64U	0.23
A15G U25C A77G	0.3
A15G U25C C27A	0.31
A15G U25C C27A C37G U58G U67C U80A	0.1

Variant	self-cleavage
A15G U25C C27A U31C C44A U72A	0.11
A15G U25C C32A A65U U66C U76A	0.08
A15G U25C C38U U48A	0.26
A15G U25C C39A U54A A64C U69C U72C	0.09
A15G U25C C50U U60C	0.2
A15G U25C C62U	0.11
A15G U25C G30C U51C A57U	0.13
A15G U25C G30U	0.08
A15G U25C G42A U49A U60C	0.1
A15G U25C U26C G52C U67C	0.12
A15G U25C U26C U51A A65U	0.4
A15G U25C U26C U66C	0.35
A15G U25C U31A A45G A47G A77G	0.16
A15G U25C U31C U51G A57G U78A	0.11
A15G U25C U41A A57G	0.16
A15G U25C U41A G52A A64G	0.12
A15G U25C U41C A45C G70U	0.51
A15G U25C U43A U72G	0.13
A15G U25C U48C	0.12
A15G U25C U49A C81G	0.07
A15G U25C U49C U60A A65G	0.07
A15G U25C U51A U54C A57U	0.09
A15G U25C U54C U69A	0.1
